Data from PubChem BioAssay (NCI).
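Protocol summary: plate cells (96-well), add compound at 5 concentrations, incubate 48 h, interpolate endpoints linearly. GI50 marks 50% less growth.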 Certain results were filed several times, with different values. The other results are left out here. The source may hold further records. Records of one sample usually come from different ranges of test concentrations, not given here; a value can be the end of its range.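 At the TGI there is no net growth.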

Legend:
Assay in all cases: NCI-60 cell line screen, 48 h
K-562 leukemia = system: K-562 leukemia
SK-MEL-2 melanoma = system: SK-MEL-2 melanoma
MOLT-4 leukemia = system: MOLT-4 leukemia

Q: Which results are given for `O=NN(CCCl)C(=O)NCCCl`?
A: GI50 (K-562 leukemia): 88.6 µM [1 test] and 277 nM [mean of 2 tests]; GI50 (SK-MEL-2 melanoma): 33.4 µM and > 363 µM

Q: Which TGI (MOLT-4 leukemia) does the source give for `COc1cccc2c1C(=O)c1c(O)c3c(c(O)c1C2=O)C[C@@](O)(C(C)O)C[C@@H]3OC1CC(N)C(O)C(C)O1` (stereo partly drawn) here?
A: 467 nM and 7.09 µM
